{
  "source": "paper PMC4336329",
  "about": "(PLoS ONE, 2015)",
  "note": "The whole screen tested about 310,000 compounds, of which about 14,000 (4.5%) showed an effect of 50% or more. The effect is printed as a negative number. The list shows a part of the results.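 Note: peak tail current of the secondary pulse compared with the same well before compound.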",
  "data": [
    {"target": "human ether-à-go-go-related gene (hERG) potassium channel (human, UniProt Q12809)", "sequence (Q12809 whole entry, looked up)": "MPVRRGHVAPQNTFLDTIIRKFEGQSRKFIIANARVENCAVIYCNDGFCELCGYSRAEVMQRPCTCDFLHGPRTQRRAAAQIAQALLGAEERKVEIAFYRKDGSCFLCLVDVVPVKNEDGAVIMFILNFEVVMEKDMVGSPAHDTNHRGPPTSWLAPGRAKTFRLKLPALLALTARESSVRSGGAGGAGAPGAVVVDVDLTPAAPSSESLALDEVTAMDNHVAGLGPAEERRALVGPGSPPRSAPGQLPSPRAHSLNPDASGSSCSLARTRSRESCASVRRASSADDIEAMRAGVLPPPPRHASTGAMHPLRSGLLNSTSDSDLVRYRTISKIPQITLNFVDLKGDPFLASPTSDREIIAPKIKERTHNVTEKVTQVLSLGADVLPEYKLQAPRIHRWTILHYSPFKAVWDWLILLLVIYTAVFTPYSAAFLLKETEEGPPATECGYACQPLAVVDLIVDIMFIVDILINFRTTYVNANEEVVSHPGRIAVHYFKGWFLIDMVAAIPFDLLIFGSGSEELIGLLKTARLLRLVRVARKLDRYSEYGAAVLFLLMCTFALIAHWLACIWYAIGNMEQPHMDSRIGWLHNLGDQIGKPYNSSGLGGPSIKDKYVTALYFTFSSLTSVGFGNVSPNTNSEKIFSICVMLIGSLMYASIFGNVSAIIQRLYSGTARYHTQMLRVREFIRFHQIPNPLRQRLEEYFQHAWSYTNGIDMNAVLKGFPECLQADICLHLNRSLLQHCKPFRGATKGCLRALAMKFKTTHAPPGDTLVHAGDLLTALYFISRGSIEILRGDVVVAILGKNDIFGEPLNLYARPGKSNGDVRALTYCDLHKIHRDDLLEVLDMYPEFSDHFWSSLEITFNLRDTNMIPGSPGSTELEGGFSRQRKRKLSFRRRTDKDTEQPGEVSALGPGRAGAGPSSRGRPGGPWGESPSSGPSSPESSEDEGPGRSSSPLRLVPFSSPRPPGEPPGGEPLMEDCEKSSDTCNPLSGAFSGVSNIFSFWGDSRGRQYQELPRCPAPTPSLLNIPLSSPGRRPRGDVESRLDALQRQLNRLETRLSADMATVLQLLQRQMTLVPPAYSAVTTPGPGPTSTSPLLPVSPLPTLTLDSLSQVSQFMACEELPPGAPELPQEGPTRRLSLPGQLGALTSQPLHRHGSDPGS", "test": "primary screen, population patch clamp on CHO cells stably expressing hERG", "units": {"hERG current change (%, negative = inhibition) at 10uM": "%"}, "values": [
      {"compound": "COc1ccccc1NC(=O)NC1(C(=O)N2CCCCCC2)CCCCC1", "hERG current change (%, negative = inhibition) at 10uM": 13},
      {"compound": "Cl.OC(COCc1ccc(Cl)cc1)CN1CCN(c2ccccn2)CC1", "note": "(centres unmarked)", "hERG current change (%, negative = inhibition) at 10uM": -66.4},
      {"compound": "O=C(CSc1ccccc1Cl)NC1CCCc2ccccc21", "note": "(centres unmarked)", "hERG current change (%, negative = inhibition) at 10uM": -1.17},
      {"compound": "Cc1cc(COc2ccccc2)oc1C(=O)O", "hERG current change (%, negative = inhibition) at 10uM": 16.1},
      {"compound": "CCOC(=O)c1nn(-c2ccc(C)cc2)c2nc(Nc3ccccc3)cc(=O)n12", "hERG current change (%, negative = inhibition) at 10uM": 21.9},
      {"compound": "Cc1ccc(C(=O)N/C(=C/c2ccco2)C(=O)NCCc2c[nH]c3ccccc23)cc1C", "hERG current change (%, negative = inhibition) at 10uM": -12.8},
      {"compound": "C=C1CCN([C@H](C(=O)NCc2ccc(Cl)c(Cl)c2)C(C)C)S(=O)(=O)c2ccccc21", "hERG current change (%, negative = inhibition) at 10uM": -15.1},
      {"compound": "COc1ccc(-n2nc3c(N4CCC(C(=O)NCCc5ccco5)CC4)nnc(C)c3c2C)cc1", "hERG current change (%, negative = inhibition) at 10uM": 2.45},
      {"compound": "COc1cc(C(C(=O)NCC2CCCO2)N(C(=O)Cn2nnc3ccccc32)c2ccc(C(C)=O)cc2)ccc1O", "note": "(centres unmarked)", "hERG current change (%, negative = inhibition) at 10uM": 17.4},
      {"compound": "COc1ccc(C2CC(c3ccc(OC)cc3)n3nc(NC(=O)c4cccs4)nc3N2)cc1", "note": "(centres unmarked)", "hERG current change (%, negative = inhibition) at 10uM": -13.9},
      {"compound": "CC1CCN(S(=O)(=O)c2ccc(NC(=S)NC(=O)c3ccc(Cl)cc3)cc2)CC1", "hERG current change (%, negative = inhibition) at 10uM": -5.12},
      {"compound": "Cc1ccc(Oc2ccc(Cl)cc2NC(=O)c2ccc(F)cc2F)cc1", "hERG current change (%, negative = inhibition) at 10uM": 5.94},
      {"compound": "Cn1c(=O)c2sccc2n2c(CCCC(=O)NCc3ccco3)nnc12", "hERG current change (%, negative = inhibition) at 10uM": -1.92},
      {"compound": "Cc1nc2ccc(S(=O)(=O)NCC(=O)NCc3ccc4c(c3)OCO4)cc2s1", "hERG current change (%, negative = inhibition) at 10uM": -2.41},
      {"compound": "COc1ccc(S(=O)(=O)N2CCOCC2)cc1NC(=O)Cc1c(F)cccc1Cl", "hERG current change (%, negative = inhibition) at 10uM": 8.42},
      {"compound": "O=C(CCNC(=O)c1ccccc1Cl)N/N=C\\c1ccc(O)cc1", "hERG current change (%, negative = inhibition) at 10uM": -13.8},
      {"compound": "CCn1c(Cc2ccccc2)nnc1SC(C)C(=O)NC1CC1", "note": "(centres unmarked)", "hERG current change (%, negative = inhibition) at 10uM": -0.178},
      {"compound": "Oc1c(Br)cc(Br)cc1CNc1nccs1", "hERG current change (%, negative = inhibition) at 10uM": 11.7},
      {"compound": "CC1(C(=O)N2CCOCC2)CCCCC1", "hERG current change (%, negative = inhibition) at 10uM": 11.6},
      {"compound": "COc1ccc(NC(=O)c2oc3cc(C)c(C)cc3c2C)c(OC)c1", "hERG current change (%, negative = inhibition) at 10uM": 16.8},
      {"compound": "COc1c(C)cc(C(=O)C2CCCN(Cc3cnc(C)s3)C2)cc1C", "note": "(centres unmarked)", "hERG current change (%, negative = inhibition) at 10uM": -7.68},
      {"compound": "COc1cccc(/C=N/c2oc(-c3ccccc3)cc2C#N)c1O", "hERG current change (%, negative = inhibition) at 10uM": 11.9},
      {"compound": "Brc1ccc(-c2csc(N/N=C/c3cccnc3)n2)cc1", "hERG current change (%, negative = inhibition) at 10uM": 19.6},
      {"compound": "O=C(C1CCC(=O)N(C2CCCC2)C1)N1CCN(Cc2cccc(F)c2)CC1", "note": "(centres unmarked)", "hERG current change (%, negative = inhibition) at 10uM": 0.172},
      {"compound": "CC[C@@]1(O)C(=O)OCc2c1cc1n(c2=O)Cc2cc3c(NC(=O)CN)cccc3nc2-1.Cl", "hERG current change (%, negative = inhibition) at 10uM": 16.8},
      {"compound": "Cc1ccc(NC(=O)/C=C/c2ccc([N+](=O)[O-])s2)c(C)c1", "hERG current change (%, negative = inhibition) at 10uM": -3.74},
      {"compound": "CCCCOc1ccc(/C=C/C(=O)Nc2ccc(C(N)=O)cc2)cc1", "hERG current change (%, negative = inhibition) at 10uM": 8.81},
      {"compound": "Cc1nc2ccccc2c(=O)n1/N=C/c1cn(-c2ccccc2)nc1-c1cccs1", "hERG current change (%, negative = inhibition) at 10uM": 5.81},
      {"compound": "Cc1cccc(C2c3[nH]c4ccccc4c3CCN2C(=O)c2nn(C)c(=O)c3ccccc23)n1", "note": "(centres unmarked)", "hERG current change (%, negative = inhibition) at 10uM": -19.5},
      {"compound": "Cc1cc(/C(O)=C2\\C(=O)C(=O)N(CCN(C)C)C2c2ccncc2)ccc1OCc1ccccc1", "note": "(centres unmarked)", "hERG current change (%, negative = inhibition) at 10uM": 3.21},
      {"compound": "CCc1cc(C(=O)NN2C(=O)NC3(CCCCC3)C2=O)sc1C", "hERG current change (%, negative = inhibition) at 10uM": 4.66},
      {"compound": "CC(C)(C)c1ccc(-c2n[nH]c(=S)n2C2CCCC2)cc1", "hERG current change (%, negative = inhibition) at 10uM": 4.01},
      {"compound": "CC(C)CN(C(=O)CCC(=O)OCC(=O)c1ccc(F)c(F)c1)c1c(N)n(CC(C)C)c(=O)[nH]c1=O", "hERG current change (%, negative = inhibition) at 10uM": 6.13},
      {"compound": "N#CCSc1ccccc1NC(=O)COC(=O)Cc1c[nH]c2ccccc12", "hERG current change (%, negative = inhibition) at 10uM": 2.6},
      {"compound": "CCN1CCN(C(C)CCc2ccccc2)CC1", "note": "(centres unmarked)", "hERG current change (%, negative = inhibition) at 10uM": -17.7},
      {"compound": "CNc1c(N)c(=O)oc2ccccc12", "hERG current change (%, negative = inhibition) at 10uM": 10.9},
      {"compound": "Cn1c(-c2ccc(F)cc2)cnc1SCC(=O)N1CCCCC1", "hERG current change (%, negative = inhibition) at 10uM": 8.09},
      {"compound": "O=C(c1nc2nc(-c3cccs3)cc(C(F)(F)F)n2n1)N1CCN(Cc2ccccc2)CC1", "hERG current change (%, negative = inhibition) at 10uM": -48.3},
      {"compound": "CC(c1nccs1)N(C)C(=O)CCc1nnc(Cc2c[nH]c3ccccc23)o1", "note": "(centres unmarked)", "hERG current change (%, negative = inhibition) at 10uM": 11.2},
      {"compound": "CCn1nc(C)cc1C(=O)N1CCCC(C(=O)c2ccc(Oc3ccccc3)cc2)C1", "note": "(centres unmarked)", "hERG current change (%, negative = inhibition) at 10uM": -9.04},
      {"compound": "CC(=O)c1c(C)[nH]c(C(=O)NNC(=O)COc2ccc(Cl)cc2C)c1C", "hERG current change (%, negative = inhibition) at 10uM": -26},
      {"compound": "Cc1cc(OCCN2CCOCC2)ccc1C(C)C.Cl", "hERG current change (%, negative = inhibition) at 10uM": 15.4},
      {"compound": "CC1=NN(c2ccccc2)C(=O)/C1=C/c1cn(C)c2ccccc12", "hERG current change (%, negative = inhibition) at 10uM": 1.05},
      {"compound": "Nc1nc(N)c(N=Nc2ccc(SCC(=O)O)cc2)c(=O)[nH]1", "hERG current change (%, negative = inhibition) at 10uM": 14.2},
      {"compound": "Cc1cnn(C(=O)c2oc3ccccc3c2C)c1", "hERG current change (%, negative = inhibition) at 10uM": 5.74},
      {"compound": "COc1ccc(C2N=C(c3ccccc3)C(C)(C)N2O)cc1OC", "note": "(centres unmarked)", "hERG current change (%, negative = inhibition) at 10uM": -4.44},
      {"compound": "CCOC(=O)C1=C(CNCc2ccc(C)cc2)NC(=O)NC1c1cc(C)ccc1C", "note": "(centres unmarked)", "hERG current change (%, negative = inhibition) at 10uM": -24.9},
      {"compound": "CCCC(=O)N(c1ccc(OC)cc1)C1C=CS(=O)(=O)C1", "note": "(centres unmarked)", "hERG current change (%, negative = inhibition) at 10uM": -8.09},
      {"compound": "Cc1[nH]n(-c2ccccc2)c(=O)c1/C=N/NC(=O)c1ccc(O)cc1O", "hERG current change (%, negative = inhibition) at 10uM": 13.7},
      {"compound": "COC(=O)c1cc2oc3ccccc3c2n1CC(=O)N1CCCc2ccccc21", "hERG current change (%, negative = inhibition) at 10uM": 15.2},
      {"compound": "NC(=O)c1cc2ccccc2o/c1=N\\NC(=O)c1ccccc1O", "hERG current change (%, negative = inhibition) at 10uM": 7.9},
      {"compound": "O=c1cc(NCCCO)c2ccccc2o1", "hERG current change (%, negative = inhibition) at 10uM": 2.62},
      {"compound": "CCN(CC)c1ccc(/C=N/NC(=O)c2ccco2)c(O)c1", "hERG current change (%, negative = inhibition) at 10uM": -4.31},
      {"compound": "CCC(=O)Oc1ccc(C(=O)Nc2c[nH]c(=O)[nH]c2=O)cc1", "hERG current change (%, negative = inhibition) at 10uM": 4.75},
      {"compound": "COc1ccc(C)cc1NC(=O)Nc1cnccn1", "hERG current change (%, negative = inhibition) at 10uM": 3.21},
      {"compound": "CCn1c2ccccc2c2cc(/C=N/NC(=O)c3cccc(C)c3)ccc21", "hERG current change (%, negative = inhibition) at 10uM": 6.36}
    ]}
  ]
}
